The results in this text go back to paper PMC4336329 (PLoS ONE, 2015).

The whole screen tested about 310,000 compounds, of which about 14,000 (4.5%) showed an effect of 50% or more. The effect is printed as a negative number. Some of the results follow.
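Also: peak tail current of the secondary pulse compared with the same well before compound.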

Sequence of human ether-à-go-go-related gene (hERG) potassium channel (Q12809 whole entry, looked up): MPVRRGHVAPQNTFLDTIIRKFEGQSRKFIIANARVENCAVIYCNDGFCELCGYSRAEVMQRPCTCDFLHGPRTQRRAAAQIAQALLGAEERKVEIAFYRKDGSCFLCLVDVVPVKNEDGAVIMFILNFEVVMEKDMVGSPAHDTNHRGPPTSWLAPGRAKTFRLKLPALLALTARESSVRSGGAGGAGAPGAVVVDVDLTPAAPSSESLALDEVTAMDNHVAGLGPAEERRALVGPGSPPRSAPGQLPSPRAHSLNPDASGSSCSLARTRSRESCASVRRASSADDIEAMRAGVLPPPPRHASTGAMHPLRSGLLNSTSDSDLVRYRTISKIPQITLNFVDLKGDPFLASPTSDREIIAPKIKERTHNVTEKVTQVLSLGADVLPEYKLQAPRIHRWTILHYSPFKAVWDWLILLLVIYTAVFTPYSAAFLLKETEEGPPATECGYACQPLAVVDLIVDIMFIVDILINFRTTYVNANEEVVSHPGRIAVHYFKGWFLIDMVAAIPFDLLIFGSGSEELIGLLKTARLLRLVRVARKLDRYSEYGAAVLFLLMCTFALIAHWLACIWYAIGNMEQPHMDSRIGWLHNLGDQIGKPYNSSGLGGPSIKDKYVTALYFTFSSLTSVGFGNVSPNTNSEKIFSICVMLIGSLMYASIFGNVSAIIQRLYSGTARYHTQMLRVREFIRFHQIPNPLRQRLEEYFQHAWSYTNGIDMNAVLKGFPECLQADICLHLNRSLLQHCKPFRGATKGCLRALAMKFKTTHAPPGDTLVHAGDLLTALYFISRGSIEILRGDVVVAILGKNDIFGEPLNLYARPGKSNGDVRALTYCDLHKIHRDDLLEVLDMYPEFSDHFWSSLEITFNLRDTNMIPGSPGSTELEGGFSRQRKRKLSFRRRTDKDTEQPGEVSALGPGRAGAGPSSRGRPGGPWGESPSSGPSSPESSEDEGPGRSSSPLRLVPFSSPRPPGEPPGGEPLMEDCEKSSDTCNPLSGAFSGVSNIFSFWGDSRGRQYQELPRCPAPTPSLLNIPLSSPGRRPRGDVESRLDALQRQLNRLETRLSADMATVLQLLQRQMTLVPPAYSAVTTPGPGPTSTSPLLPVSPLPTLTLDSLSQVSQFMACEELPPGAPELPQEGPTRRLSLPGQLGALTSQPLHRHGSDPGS

This experiment addresses human ether-à-go-go-related gene (hERG) potassium channel (human, UniProt Q12809). Kind of experiment: primary screen, population patch clamp on CHO cells stably expressing hERG.
Consider `CSc1ccccc1C(=O)N(C)C(c1ccccc1)c1ccccc1`, for which the “hERG current change (%, negative = inhibition) at 10uM” value is 1.53%.
`CCOC(=O)Cc1csc(NS(C)(=O)=O)n1`: the “hERG current change (%, negative = inhibition) at 10uM” value was found to be 15.5%.
On to `CCc1cc(-c2[nH]ncc2-c2ccc(OC)cc2)c(O)cc1O`, for which the “hERG current change (%, negative = inhibition) at 10uM” value turned out to be 10.8%.
With `O=C(N/N=C/c1ccc(OCC(=O)N2CCCC2)cc1)C(=O)NC1CC1`, the “hERG current change (%, negative = inhibition) at 10uM” value worked out at 19.2%.
Under `CN(C(=O)Cn1cnc2sccc2c1=O)C1CCCCC1` stands 1.38%.
For the compound `CN(C=O)CP(=O)(O)CN(C)C=O`, the “hERG current change (%, negative = inhibition) at 10uM” value is given as -0.845%.
Consider `Cc1cccc(C)c1NC(=O)NC1(C(=O)N2CCOCC2)CCCCC1`, for which the “hERG current change (%, negative = inhibition) at 10uM” value is listed as 12.9%.
With `COc1ccccc1-n1c(CNc2ccc(F)cc2)nnc1SCC(=O)Nc1cc(C)on1` the figure was -1.35%.
`Cc1cccc(NC(=S)NNC(=O)Cc2ccccc2)c1`: the “hERG current change (%, negative = inhibition) at 10uM” value came to 12.5%.
Regarding `O=S(=O)(Nc1cccc2ccccc12)c1ccccc1`, the “hERG current change (%, negative = inhibition) at 10uM” value is recorded as -5.57%.
For the compound `CCCCN1C(=O)C2NN=C(C(=O)OC)C2C1=O` (stereo not drawn), the “hERG current change (%, negative = inhibition) at 10uM” value is recorded as -4.12%.
With `COc1ccc(NC(=O)Nc2ccc(OCC(=O)N3CCOCC3)cc2)cc1OC` the figure was -2.3%; with `CCCn1nnc(NC(=O)c2ccc(-c3cc(Cl)ccc3Cl)o2)n1`, 6.96%.
Regarding `Cn1c2c(c(=O)n(C)c1=O)C1c3cc(Cl)ccc3OCC1CO2` (stereo not drawn), the “hERG current change (%, negative = inhibition) at 10uM” value is -18.7%.
Consider `Cc1ccc(S(=O)(=O)N2CCC(Oc3cccc(C(F)(F)F)c3)CC2)cc1`, for which the “hERG current change (%, negative = inhibition) at 10uM” value is recorded as 10.5%.
With `Cc1cc(Cl)ccc1OCC(=O)O`, the “hERG current change (%, negative = inhibition) at 10uM” value was -0.423%.
`Cc1ccc(N(C(=O)c2csnn2)C(C(=O)NC2CCCC2)c2ccccn2)c(C)c1` (stereo not drawn): the “hERG current change (%, negative = inhibition) at 10uM” value was determined as 14.9%.
With `Cl.NC(N)=N/N=C/c1ccc(Br)cc1`, the “hERG current change (%, negative = inhibition) at 10uM” value was -17.4%.
Consider `CCn1cc(CN2CCN(Cc3ccccc3)C(CCO)C2)c2ccccc21` (stereo not drawn), for which the “hERG current change (%, negative = inhibition) at 10uM” value was -32%.
Regarding `COc1ccc(C)cc1NC(=O)c1ccccc1NS(=O)(=O)c1ccc(Cl)s1`, the “hERG current change (%, negative = inhibition) at 10uM” value is on record as 23.8%.
Turning to `CCC(=O)N1CCN(CCN=CC2=C(O)CC(c3ccc(OC)cc3)CC2=O)CC1` (stereo not drawn), the “hERG current change (%, negative = inhibition) at 10uM” value came out at 5.11%.
As for `CCOC(=O)c1c(-c2cccs2)csc1NC(=O)CN1CCOCC1`, the “hERG current change (%, negative = inhibition) at 10uM” value is -12.6%.
With `COc1cc(/C=C(\NC(C)=O)C(=O)Nc2ccccc2C)ccc1OC(C)=O` the figure was 4.81%; with `Cc1ccc(N2C(=O)CC(Cn3nc(C)cc3C)C2=O)cc1` (stereo not drawn), 5.87%.
With `CCC(C)(C)NC(=O)c1cc(OC)c(OC)cc1[N+](=O)[O-]` the figure was 26.8%.
`COC(=O)c1c(NC(=O)COC(=O)CCS(=O)(=O)c2ccc(C)cc2)sc(C)c1C`: the “hERG current change (%, negative = inhibition) at 10uM” value was determined as 8.18%.
Consider `COc1cccc(NC(=O)N2CCC(n3nnc4ccccc43)CC2)c1`, for which the “hERG current change (%, negative = inhibition) at 10uM” value is -18.8%.
Regarding `Cc1nn(CC(C)C)c2sc(C(=O)NC3CC(C)(C)NC(C)(C)C3)cc12`, the “hERG current change (%, negative = inhibition) at 10uM” value was 17.8%.
Take `Cl.O=C(Cn1cc(CCO)nn1)N1CCNCC1`: the “hERG current change (%, negative = inhibition) at 10uM” value turned out to be 4.7%.
In the case of `O=C(CCl)N1CCN(S(=O)(=O)c2ccc3c(c2)CCC3)CC1`, the “hERG current change (%, negative = inhibition) at 10uM” value is -22.6%.
With `COc1ccc(CCN(Cc2cc3cccc(C)c3[nH]c2=O)C(=O)N2CCCC2)cc1OC`, the “hERG current change (%, negative = inhibition) at 10uM” value was -9.15%.
With `CCN(C(N)=S)c1ccccc1` the figure was 0.679%; with `CN(C(=O)COC(=O)COc1ccc2ccccc2c1)c1c(N)n(Cc2ccccc2)c(=O)[nH]c1=O`, 7.19%.
Turning to `COc1ccc(C)cc1S(=O)(=O)N1CCOCC1`, the “hERG current change (%, negative = inhibition) at 10uM” value worked out at 21.2%.
As to `Cn1c(=O)cc(OCCCC(=O)NCc2ccccn2)c2ccccc21`, the “hERG current change (%, negative = inhibition) at 10uM” value was 2.41%.
For `CC(C)CCNC(=O)c1ccccc1SCC(=O)NC1CCCCCCC1`, the “hERG current change (%, negative = inhibition) at 10uM” value was -14.8%.
Regarding `Cc1ccc(C)c(N2CCN(S(=O)(=O)c3c(C)[nH]c(C)c3C(=O)N3CCCCC3)CC2)c1`, the “hERG current change (%, negative = inhibition) at 10uM” value worked out at 6.63%.
With `CSCCC(NS(=O)(=O)c1ccc2c(c1)oc(=O)n2C)C(=O)NC1CCC(C)CC1` (stereo not drawn) the figure was 4.95%; with `CCOC(=O)COc1c(C=O)cc(Br)cc1OC`, -23.3%; with `C/C(=N/NC(=O)CSc1ccccn1)c1ccc([N+](=O)[O-])cc1`, -64.2%.
For the compound `C=CCOc1ccc(C2/C(=C(\O)c3ccc4c(c3)CC(C)O4)C(=O)C(=O)N2CCN2CCOCC2)cc1OCC` (stereo not drawn), the “hERG current change (%, negative = inhibition) at 10uM” value is 19.6%.
Take `CCC(=O)c1c(NC(C)C)cc(C)oc1=O`: the “hERG current change (%, negative = inhibition) at 10uM” value is 21.2%.
Turning to `CCCCN(C(=O)c1ccc(Cl)c([N+](=O)[O-])c1)c1c(N)n(CCC)c(=O)[nH]c1=O`, the “hERG current change (%, negative = inhibition) at 10uM” value is reported as 12.6%.
With `CCOc1ccc(NC(=O)CNC(=O)c2ccc([N+](=O)[O-])cc2)cc1` the figure was -7.46%; with `Cc1ccc2nc(C3CCCN(C(=S)Nc4ccccc4C)C3)[nH]c2c1` (stereo not drawn), 16.2%.
With `COc1cccc(NC(=O)CC(=O)c2ccccc2)c1`, the “hERG current change (%, negative = inhibition) at 10uM” value turned out to be 14%.
Turning to `CC(C)(C)[C@H]1C=C(C(=O)NCc2nc3ccccc3[nH]2)O[C@@H](OCc2ccc(CO)cc2)C1`, the “hERG current change (%, negative = inhibition) at 10uM” value was -18.7%.
With `CCOC(=O)c1cccc(NC(=O)CCS(=O)(=O)c2ccc(Br)s2)c1` the figure was 18.7%.
Take `CN(CC(=O)Nc1ccc(OC(F)(F)F)cc1)C(=O)Cn1c(=O)cnc2ccccc21`: the “hERG current change (%, negative = inhibition) at 10uM” value was -30.9%.
With `COc1ccc(N(CC(=O)N2CCN(c3cccc(C)c3)C(C)C2)S(=O)(=O)c2c(C)n[nH]c2C)cc1` (stereo not drawn), the “hERG current change (%, negative = inhibition) at 10uM” value is on record as -16.8%.
For the compound `NC(=O)CC(NC(=O)Cc1cccc2ccccc12)c1ccc(NCCCN2CCCC2=O)c([N+](=O)[O-])c1` (stereo not drawn), the “hERG current change (%, negative = inhibition) at 10uM” value turned out to be 10.1%.
For `COc1ccc(S(=O)(=O)Cc2ccc(C(=O)NC3CCC(C)CC3)o2)cc1` (stereo not drawn), the “hERG current change (%, negative = inhibition) at 10uM” value is on record as -15.8%.
`CCO[C@@H]1OC(C(=O)O)=C[C@H](C2CC2)[C@H]1CCCO`: the “hERG current change (%, negative = inhibition) at 10uM” value is 7.6%.
On to `O=C(CN1CCN(c2ccccn2)CC1)NC(=O)NC1CCCCC1`, for which the “hERG current change (%, negative = inhibition) at 10uM” value is listed as 1.52%.
Under `O=C(/C=C/c1nc2ccccc2s1)N1CCCCCC1` stands -0.709%.
With `CC(C)N(C(=O)CN1CCN(C(=O)C2COc3ccccc3O2)CC1)C(C)C` (stereo not drawn) the figure was -0.817%.
With `CNC(=O)COc1coc(CN2CCN(c3ccc(OC)cc3)CC2)cc1=O` the figure was 1.11%.
